About 2,200 (0.71%) of roughly 310,000 compounds showed an effect of 50% or more. The effect is printed as a negative number. Some of the results follow.
Each compound was assayed against human ether-à-go-go-related gene (hERG) potassium channel (human, UniProt Q12809) (assay: primary screen, population patch clamp on CHO cells stably expressing hERG).
human ether-à-go-go-related gene (hERG) potassium channel, sequence (Q12809 whole entry, looked up): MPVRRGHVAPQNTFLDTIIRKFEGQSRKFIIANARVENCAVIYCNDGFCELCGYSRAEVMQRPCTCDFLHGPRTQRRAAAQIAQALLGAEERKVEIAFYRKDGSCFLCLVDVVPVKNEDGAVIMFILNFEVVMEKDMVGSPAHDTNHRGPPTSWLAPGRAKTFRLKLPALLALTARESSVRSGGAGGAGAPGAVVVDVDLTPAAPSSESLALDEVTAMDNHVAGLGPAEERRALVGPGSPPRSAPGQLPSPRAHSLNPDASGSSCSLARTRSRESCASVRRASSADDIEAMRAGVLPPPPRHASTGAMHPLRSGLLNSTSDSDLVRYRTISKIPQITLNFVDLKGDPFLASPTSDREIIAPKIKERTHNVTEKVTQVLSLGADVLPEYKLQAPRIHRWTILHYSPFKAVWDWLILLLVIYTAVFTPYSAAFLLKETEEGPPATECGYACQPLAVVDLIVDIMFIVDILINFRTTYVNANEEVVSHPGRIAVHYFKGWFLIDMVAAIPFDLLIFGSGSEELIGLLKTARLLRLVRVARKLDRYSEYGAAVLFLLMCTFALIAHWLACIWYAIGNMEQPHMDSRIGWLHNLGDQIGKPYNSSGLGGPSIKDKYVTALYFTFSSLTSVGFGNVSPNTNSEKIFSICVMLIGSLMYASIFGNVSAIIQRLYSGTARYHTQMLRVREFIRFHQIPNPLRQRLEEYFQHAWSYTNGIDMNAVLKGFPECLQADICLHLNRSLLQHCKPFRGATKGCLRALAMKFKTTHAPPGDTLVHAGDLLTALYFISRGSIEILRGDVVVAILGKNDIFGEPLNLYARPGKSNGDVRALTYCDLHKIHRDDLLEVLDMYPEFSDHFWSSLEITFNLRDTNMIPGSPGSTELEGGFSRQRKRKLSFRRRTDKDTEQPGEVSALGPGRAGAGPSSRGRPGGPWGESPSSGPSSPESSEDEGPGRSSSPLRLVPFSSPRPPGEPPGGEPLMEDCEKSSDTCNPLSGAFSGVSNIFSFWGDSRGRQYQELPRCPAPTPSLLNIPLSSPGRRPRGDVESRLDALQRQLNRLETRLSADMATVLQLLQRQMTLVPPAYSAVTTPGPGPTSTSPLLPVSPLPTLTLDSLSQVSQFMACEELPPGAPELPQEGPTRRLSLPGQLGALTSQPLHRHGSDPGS

| SMILES | hERG current change (%, negative = inhibition) at 1uM [%] |
| --- | --- |
| O=C(Nc1cc(C(F)(F)F)ccc1Cl)C(Sc1cccc[n+]1[O-])c1ccccc1 (stereo not drawn) | 10.7 |
| COc1ccc(S(=O)(=O)N2CCCCCC2)cc1C(=O)N1CCCC(C(F)(F)F)C1 (stereo not drawn) | 5.89 |
| CCc1ccc(CN(C)C(=O)c2cc(S(=O)(=O)N3CCN(CC)CC3)ccc2Cl)cc1 | 5.61 |
| Cc1cc(C=O)c(C)n1-c1ccc(NC2CCCC2)c([N+](=O)[O-])c1 | 4.18 |
| COc1cccc(-c2csc(N3CCN(Cc4ccccc4)CC3)n2)c1 | 9.14 |
| O=[N+]([O-])c1ccccc1CN1CCN(S(=O)(=O)Cc2ccccc2)CC1 | 2.33 |
| Cc1nc(Sc2ccc(Cl)cc2)c(C#N)c(C)c1[N+](=O)[O-] | 7.49 |
| C=C(C)c1cccc(C(C)(C)NC(=O)Nc2ccc3[nH]c(=O)[nH]c3c2)c1 | 2.45 |
| Cc1[nH]c(C)c(S(=O)(=O)N2CCN(c3cccc(Cl)c3)CC2)c1C(=O)N1CCCC1 | 9.64 |
| O=C(CN1CCOCC1)Nc1ccc(N2CCN(c3ccccc3)CC2)c(F)c1 | 11.9 |
| CS(=O)(=O)N(CC(=O)Nc1ccccc1C(=O)N1CCOCC1)c1ccc(F)c(Cl)c1 | 14.2 |
| OC(c1ccccc1)c1nccn1Cc1ccccc1 (stereo not drawn) | 7.15 |
| CNc1nc(SC)nc2ccccc12 | 16.4 |
| Cc1cc(C)n(CCOc2nonc2N)n1 | 5.69 |
| CCN1CCN(C(=O)CN(C)S(=O)(=O)c2ccc3ccccc3c2)CC1 | 10.6 |
| CCOc1cc2c(C#N)c(N3CCCC3)nc(N)c2c(N)n1 | -0.114 |
| CC(NC(=O)CCSCc1ccccc1F)c1ccccc1 (stereo not drawn) | 13.6 |
| CCOC(=O)N/N=C(C)/C=C/c1ccco1 | 11 |
| O=C(CSc1ccccc1F)NC1CCS(=O)(=O)C1 (stereo not drawn) | 9.8 |
| O=C(CNC(=O)c1cccs1)OCC(=O)c1ccccc1 | 12.6 |
| CC(CCc1ccccc1)NC(=O)CN1CCSc2ccccc21 (stereo not drawn) | 11.9 |
| Cc1cc(C)cc(OC(C)C(=O)Nc2ccccc2C(=O)NCc2cccnc2)c1 (stereo not drawn) | 14.2 |
| CC(=O)Nc1cccc(NC(=O)C2CCN(C(=O)c3ccco3)CC2)c1 | 11.4 |

| SMILES | hERG current change (%, negative = inhibition) at 1uM [%] |
| --- | --- |
| CCCCn1c(N)c(N(CCOC)C(=O)CN(C)S(=O)(=O)c2ccc(Cl)cc2)c(=O)[nH]c1=O | 15.6 |
| O=C(OC(C(=O)NCC1CCCO1)c1ccc(F)cc1)c1cccs1 (stereo not drawn) | 0.0575 |
| Cc1nc(-c2ccc(Cl)cc2)sc1C1(C)CC(c2cccc(F)c2)=NO1 (stereo not drawn) | 9.58 |
| C=CCn1c(=O)c2ccccc2n2c(SCC(=O)Nc3sc(C)c(CC)c3C(=O)OCC)nnc12 | 13.8 |
| CSCCNC(C)=O | 15.3 |
| COC(=O)c1ccc(COC(=O)c2[nH]c(C)c(C(C)=O)c2C)o1 | 14.2 |
| CC1(C)C2([N+](=O)[O-])CNCC1([N+](=O)[O-])CNC2 | 3.17 |
| Cc1ccc(O)c(NC(=O)c2cc(-c3ccccc3Cl)on2)c1 | 23.9 |
| COC(=O)c1c[nH]n2c(=O)c(Cl)c(C)nc12 | 12.1 |
| NS(=O)(=O)c1ccc(CCNS(=O)(=O)c2ccc(Cl)nc2)cc1 | 14.8 |
| O=C(COC(=O)c1n[nH]c2ccccc12)NC(=O)NC12CC3CC(CC(C3)C1)C2 | 2.58 |
| Cc1cccc(C)c1NC(=O)c1c(C)nn(-c2ccccc2)c1Cl | -2.32 |
| CCOC(=O)C1=C(C)OC(N)=C(C#N)C1c1ccc(C)o1 (stereo not drawn) | 7.95 |
| Cc1cc(=O)[nH]c(N/N=C/c2ccco2)n1 | 8.8 |
| CC(=O)Nc1cccc(C(=O)OC(C)C(=O)NC2CCCc3ccccc32)c1 (stereo not drawn) | 13.9 |
| O=C(c1ccc(Cn2c(=S)[nH]c3ccccc3c2=O)cc1)N1CCN(c2ccccn2)CC1 | 10.5 |
| COc1ccc(C2C3=C(Nc4ncnn42)c2ccccc2CC3)cc1OC (stereo not drawn) | 11.5 |
| Cc1ccc(NC(=O)COc2cccnc2[N+](=O)[O-])cc1S(=O)(=O)N1CCCCC1 | 5.19 |
| O=C(Nc1ccc(Cl)cc1)Nc1ccc(-c2cnco2)cc1 | 10.7 |
| C=COC(=O)CSc1nc(-c2cccs2)ccc1C#N | 12.6 |
| COCC(C)n1c(C)cc(C(=O)COC(=O)c2oc3ccccc3c2C)c1C (stereo not drawn) | 6.64 |
| O=C(O)c1cc(NCc2ccc(F)cc2)ccc1N1CCOCC1 | 3.26 |

From PMC4336329 (PLoS ONE, 2015)
